The campaign covered roughly 52,000 compounds. About 4,300 (8.3%) were called active. Rule as the data show it: active = survival mostly below about 52% (no sharp cut-off); inactive = mostly above about 56%. Some of the results follow.

This assay concerns DeltatarO mutant. Kind of assay: S. aureus survival, RN4220 and DeltatarO strains – OD600, teichoic acid synthesis inhibitors, primary screen (AID 463173). Conditions: S. aureus RN4220 wild type/DeltatarO growth, OD600, 18 h, stronger effect = lower value, screened at 18.75 µg/mL (by protocol).
With `Cc1ccc(-n2ccnc(NCc3ccccc3)c2=O)cc1C`, the survival is inactive: 89%.
On to `O=C(NCc1cccc(F)c1)C1=Cc2cc(Br)ccc2OC1`, for which the survival is inactive: 78%.
With `Cn1c(=O)oc2cc(S(=O)(=O)N3CCCC(C(=O)Nc4ccc(Br)cc4F)C3)ccc21` (configuration not stated), the survival was inactive: 97%.
On to `O=C(Nc1cc(C(F)(F)F)ccc1Cl)c1cc2nc(-c3ccc4c(c3)OCO4)cc(C(F)(F)F)n2n1`, for which the survival is inactive: 95%.
As to `CCc1ccccc1NC(=O)CN1C(=O)CCc2cc(S(=O)(=O)N3CCCCC3)ccc21`, the survival was inactive: 95%.
For `Cc1ccc(CNC(=O)c2ccc(CSCc3ccc(Cl)cc3)o2)cc1`, the survival was inactive: 79%.
Turning to `CCCCNS(=O)(=O)c1ccc2nc(NC(=O)c3cccnc3)sc2c1`, the survival is inactive: 79%.
With `Cc1cn(C)c(CC(=O)Nc2cccc(Cl)c2C)c1C(=O)O` the figure was inactive: 99%.
The same measure for `CCc1ccc(NC(=O)c2ccc(F)c(S(=O)(=O)N3CCC(C)CC3)c2)cc1`: inactive: 91%.
In the case of `Cc1cc(C)cc(NC(=O)CN2C(=O)c3ccccc3Sc3ccc(C(=O)N4CCOCC4)cc32)c1`, the survival was inactive: 89%.
As to `COc1cc2c(cc1NS(=O)(=O)c1cccc(C#N)c1)n(C)c(=O)n2C`, the survival was inactive: 87%.
As to `Cc1ccc(C)c(Cn2nnc(C(=O)NCc3ccc(Cl)cc3Cl)c2N)c1`, the survival is inactive: 62%.
On to `CCOC(=O)c1cc2c(ccn2-c2ccc(F)cc2)n1CC(=O)NC1CCCCC1`, for which the survival was inactive: 98%.
Take `COc1ccc(OCCCn2c(=O)oc3ccc(C)cc32)cc1`: the survival was inactive: 39%.
For the molecule `CCOC(=O)CNc1cccc(Cl)c1`, the survival was inactive: 90%.
With `Cc1ccc(C)c(N(C)C(=O)C2CCN(c3ncnc4c3nc3n4CCCCC3)CC2)c1`, the survival is inactive: 67%.
In the case of `CCN(CC)C(=O)/C(=C\c1ccc(OC)c(OC)c1)n1ccccc1=O`, the survival was inactive: 103%.
As to `COc1ccc(CCNC(=O)CCCCCn2c(SCC(N)=O)nc3cc4c(cc3c2=O)OCO4)cc1OC`, the survival was inactive: 74%.
Turning to `Cc1ccc(S(=O)(=O)N2CCCc3cc(NC(=O)c4ccccc4Cl)ccc32)cc1`, the survival was inactive: 94%.
On to `CCN(CC)S(=O)(=O)c1ccc2c(c1)N(CC(=O)Nc1ccc(F)cc1)C(=O)CO2`, for which the survival was inactive: 75%.
As for `CCn1c(=O)cc(OCC(=O)Nc2cc(OC)c(OC)c(OC)c2)c2ccccc21`, the survival was inactive: 47%.
As to `COCCNC(=O)CSc1nc2ccccc2nc1Cc1ccc(C)cc1`, the survival is inactive: 78%.
The same measure for `COc1cccc(N2CCN(c3ccc4nnc(CCC(=O)O)n4n3)CC2)c1`: inactive: 89%; for `CCOc1ccc(CNC(=O)c2ccc3nc(CC)c(CC)nc3c2)cc1OC`: inactive: 80%.
Turning to `CCc1ccc(S(=O)(=O)c2c(C(=O)c3ccc(C)c(C)c3)cnc3ccccc23)cc1`, the survival was inactive: 90%.
Turning to `Cn1cnc(S(=O)(=O)N2CCCC(C(=O)Nc3cccc(C#N)c3)C2)c1` (configuration not stated), the survival was inactive: 124%.
The same measure for `COc1ccc(NC(=O)N(Cc2nnc3n2CCCCC3)c2ccc(OC)c(Cl)c2)cc1`: inactive: 60%; for `O=C(Nc1c(C(=O)c2ccc(F)cc2)oc2ccccc12)c1cc(-c2ccccc2)on1`: inactive: 77%; for `Cc1ccc(CNCc2c(C(=O)O)c(C)n(Cc3ccc(C)cc3)c2C)cc1`: inactive: 85%.
Regarding `CCN(CC)S(=O)(=O)c1nnc(NC(=O)COc2cccc(C)c2)s1`, the survival was inactive: 94%.
As for `Cc1c(C(=O)NCc2ccccc2Cl)cccc1-n1cnc2cccnc21`, the survival is inactive: 78%.
As to `Cc1cccc(CNC(=O)c2ccc3nc(-c4ccccc4)c(-c4ccccc4)nc3c2)c1`, the survival was inactive: 75%.
With `Cc1cccc(NC(=O)Cn2c(=O)n(CCc3ccccc3)c(=O)c3sc4ccccc4c32)c1`, the survival was inactive: 105%.
The same measure for `CCC12CN3CC(C)(CN(C1)C3c1c(C)n(C)c3ccccc13)C2=O` (configuration not stated): inactive: 79%.
Take `CC(C)CC(=O)Nc1ccc(S(=O)(=O)NCc2ccco2)cc1`: the survival is inactive: 111%.
For `CCS(=O)(=O)N1CCNCC1`, the survival is inactive: 80%.
On to `O=C(Cn1c(=O)n(-c2ccccc2)c(=O)c2c3c(sc21)CCCC3)Nc1cccc(F)c1`, for which the survival is inactive: 94%.
The same measure for `CN(C)c1ccc(CNC(=O)c2ccc(NC(=O)c3nsc4ccccc34)cc2)cc1`: inactive: 84%; for `COc1cccc(Cc2nc3ccccc3nc2SCC(=O)Nc2ccccc2F)c1`: inactive: 67%.
With `COc1cc2c(cc1OC)C(C)N(C(C)=O)CC2` (configuration not stated) the figure was inactive: 75%.
`COc1ccc(CCN2C(=O)c3[nH]nc(-c4ccccc4O)c3C2c2ccc(O)c(OC)c2)cc1` (configuration not stated): the survival was active: 30%.
Consider `COc1ccc(-c2c(C)nn3c(-c4ccccc4)cc(-c4ccccc4)nc23)cc1OC`, for which the survival was inactive: 96%.
The same measure for `CCOC(=O)CC(NC(=O)c1cc2c(=O)n3cccc(C)c3nc2s1)c1ccc(OCC(C)C)c(OC)c1` (configuration not stated): inactive: 64%; for `O=C(NC1CCCCC1)c1cc(Nc2ccccc2)nc2ccccc12`: inactive: 60%; for `COC(=O)c1ccc(NC(=O)CCNS(=O)(=O)c2cccc3nsnc23)cc1`: inactive: 65%.
The same measure for `CCC(CC)C(=O)Nc1nnc2n1CCS2`: inactive: 113%.
With `O=C(CSc1nc2c([nH]c3ccccc32)c(=O)n1-c1ccc(F)cc1)N1CCCc2ccccc21` the figure was inactive: 78%; with `O=C1CC2C(=O)NCCN2C(=NC(=O)c2ccc(Cl)cc2)N1` (configuration not stated), inactive: 99%; with `O=C(Nc1c[nH]c(=O)[nH]c1=O)c1cccc(C(=O)Nc2c[nH]c(=O)[nH]c2=O)c1`, inactive: 78%.
As to `CCOC(=O)Cn1c(=O)n(C2CCCCC2)c2nc(-c3ccccc3Cl)nc(C(N)=O)c21`, the survival is inactive: 84%.
Take `Cc1cccc(C)c1OCc1nc2c3cnn(-c4ccccc4Br)c3ncn2n1`: the survival was inactive: 69%.
For the molecule `Nc1c(-c2nc(-c3ccc(Cl)cc3)no2)nnn1-c1ccc(C(F)(F)F)c(Cl)c1`, the survival is inactive: 75%.
With `COc1cc(NC(=O)c2cc(C3CC3)nc3c2c(C)nn3-c2ccc(C)cc2)cc(OC)c1`, the survival is inactive: 92%.
Take `CCOCCCn1c(SCC(=O)NCCCOC)nc2c(sc3ccccc32)c1=O`: the survival is inactive: 126%.
The same measure for `Cc1ccccc1Nc1cc(C(=O)NC2CCCCC2)c2ccccc2n1`: inactive: 125%.
Turning to `CCOCCCNC(=O)c1c[nH]c2ccc(S(=O)(=O)Nc3cccc(Cl)c3C)cc2c1=O`, the survival is inactive: 93%.
For the molecule `Cn1c(=O)oc2cc(S(=O)(=O)N3CCCC(C(=O)N4CCN(c5ccccc5F)CC4)C3)ccc21` (configuration not stated), the survival is inactive: 94%.
For `CCOC(=O)N1CCc2c(sc3c2c(=O)n(-c2ccc(Cl)cc2)c(=O)n3Cc2cccc(C)c2)C1`, the survival was inactive: 74%.
With `Cc1cc2c(cc1S(=O)(=O)N(C)CC(=O)Nc1cccc(C#N)c1)OCC(=O)N2` the figure was active: -2%; with `Nc1sccc1C(=O)c1ccccc1`, inactive: 96%.
For the molecule `CCOC(=O)c1cccc(NC(=O)CCn2nc(C)c3c(C)n(-c4ccccc4)nc3c2=O)c1`, the survival was inactive: 69%.
Consider `COCCCNC(=O)C1CCCN(S(=O)(=O)c2ccc3c(c2)oc(=O)n3C)C1` (configuration not stated), for which the survival is inactive: 102%.
The same measure for `COc1ccccc1C(=O)NCC1(N2CCN(C)CC2)CCCCC1`: inactive: 69%; for `Cc1ccc(C)c(NC(=O)N2CCC(N3CCN(Cc4ccc(F)cc4)C(=O)C3=O)CC2)c1`: inactive: 99%; for `COc1ccccc1CNC(=O)c1ccc(CN2CC(=O)N3CCCCC3C2=O)cc1` (configuration not stated): inactive: 81%.
Turning to `CCN(CC)c1ccc(NC(=O)CN2CCN(CC(=O)Nc3ccccc3OC)CC2)cc1`, the survival was inactive: 124%.
Regarding `CN(C)CCCNc1nc(-c2ccc(Cl)cc2)cs1`, the survival was inactive: 132%.
For `Cc1ccc2occ(CC(=O)N(Cc3ccc(N(C)C)cc3)C3CCS(=O)(=O)C3)c2c1` (configuration not stated), the survival is inactive: 74%.
Consider `CN(c1ccccc1)C(c1ccc(F)cc1)c1nnnn1CC1CCCO1` (configuration not stated), for which the survival is inactive: 86%.
`CCOc1ccc(CNC(=O)CCC(=O)N2CCSc3ccccc32)cc1`: the survival is inactive: 50%.
For `O=C(c1ccccc1)N1CCN(c2ccc(F)cc2)CC1`, the survival is inactive: 78%.
Turning to `COc1ccccc1N1CCN(S(=O)(=O)c2cc3[nH]c(=O)c(=O)[nH]c3cc2C)CC1`, the survival is inactive: 79%.
Turning to `Cc1ccc(C)c(NC(=O)C(Cc2ccccc2)N2Cc3ccccc3C2=O)c1` (configuration not stated), the survival was inactive: 118%.
Regarding `Cc1ccc(CCNc2ncnc3onc(C)c23)cc1`, the survival was inactive: 105%.
The same measure for `COc1cccc(-c2nc3c(C#N)c[nH]n3c2NC2CCCCC2)c1OC`: inactive: 60%.
The same measure for `CC(C)N1CCN(S(=O)(=O)c2ccc(Cl)cc2)CC1`: inactive: 90%; for `COc1ccc(Br)cc1Cc1nc(C)cc(Cl)n1`: inactive: 71%.
With `CC(NC(=O)c1sc2ncccc2c1-n1cccc1)c1ccccc1` (configuration not stated) the figure was inactive: 95%.
In the case of `COc1cc(OC)c2c(C)cc(=O)oc2c1`, the survival was inactive: 112%.
As to `COc1ccc(NC(=O)N2CCc3c([nH]c4ccc(OC)cc34)C2c2ccc(OC)cc2)cc1` (configuration not stated), the survival was inactive: 86%.
On to `COc1ccc2nc(N3CCN(C(=O)C4CC4)CC3)sc2c1`, for which the survival is inactive: 97%.
Consider `O=C(NCc1ccccc1)N(Cc1nc2ccccc2c(=O)[nH]1)C1CCCC1`, for which the survival was active: 52%.
Turning to `COC(=O)c1cc2oc3ccccc3c2n1Cc1c(F)cccc1Cl`, the survival is inactive: 118%.
For the molecule `CCc1cccc(NC(=O)CN2CCCN(Cc3cccc(C)c3)S2(=O)=O)c1`, the survival is inactive: 78%.
With `Cc1ccc(Cl)cc1N(C)C(=O)c1cnc(N2CCOCC2)c2ccccc12` the figure was inactive: 98%; with `CN(N)c1cc(=O)n(C)c(=O)[nH]1`, inactive: 96%; with `CCOc1ccc2nc(NCCNC(=O)c3cc(OC)c(OC)c(OC)c3)c(C#N)cc2c1`, inactive: 76%.
With `CCN(CC)C(=O)C1CCCN(c2ncnc3onc(C)c23)C1` (configuration not stated) the figure was inactive: 99%; with `O=C(CC1Oc2ccc(Cl)cc2NC1=O)NCc1ccccc1` (configuration not stated), inactive: 78%; with `C/C(=N\NC(N)=O)C1CC(CC(C)C)C(=O)O1` (configuration not stated), inactive: 101%.
The same measure for `CCOc1ccccc1C(=O)NC1CC2CCCC(C1)N2C1CC1` (configuration not stated): inactive: 75%.
For the molecule `CCOC(=O)CC(NC(=O)Cn1nnc(-c2ccc(C(F)(F)F)cc2)n1)c1ccc(C)cc1` (configuration not stated), the survival was inactive: 62%.

The values above are taken from PubChem BioAssay AID463173 (ICCB-Longwood Screening Facility, Harvard Medical School, 2010).
